# From the supplement of paper PMC8728848
# The other results are listed elsewhere or left out.
# B1: MIG/CXCL9 (Homo sapiens) (protein)
# chain: TPVVRKGRCSCISTNQGTIHLQSLKDLKQFAPSPSCEKIEIIIATLKNGVQTCLNPDSADVKELIKKTEKQVSQKKKQKNGKKHQKKKVLKVRKSQRSRQKKTT
# Key:
# Assay in all cases: glycan array binding signal (z-score within array); higher = stronger binding
# Settings in all cases: glycan notation: IUPAC condensed, linker removed
# [1] = molecular target: GlcNAc(b1-3)Gal(b1-4)GlcNAc
# In short: (§1)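 Negative Z-scores can be read as non-binding. The Z-score is calculated within each array and then averaged across arrays of one protein sequence at different concentrations or buffers and across linkers. Arrays, 3228 in all, were curated from the Consortium for Functional Glycomics database and kept only where the protein sequence was available.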
# [2] = molecular target: GlcNAc(b1-3)Gal(b1-4)GlcNAc(b1-3)Gal(b1-4)GlcNAc
# In short: as §1
# GlcNAc(b1-3)GalNAc = molecular target: GlcNAc(b1-3)GalNAc
# In short: as §1
# [3] = molecular target: GlcNAc(b1-3)[GlcNAc(b1-6)]Gal(b1-4)GlcNAc
# In short: as §1
# [4] = molecular target: GlcNAc(b1-3)[GlcNAc(b1-6)]GalNAc
# In short: as §1
# [5] = molecular target: GlcNAc(b1-3)[GlcNAc(b1-6)]GlcNAc(b1-4)GlcNAc
# In short: as §1
# [6] = molecular target: GlcNAc(b1-4)Gal(b1-4)GlcNAc
# In short: as §1
# [7] = molecular target: GlcNAc(b1-4)GlcNAc(b1-4)GlcNAc
# In short: as §1
# [8] = molecular target: GlcNAc(b1-4)GlcNAc(b1-4)GlcNAc(b1-4)GlcNAc(b1-4)GlcNAc
# In short: as §1
# [9] = molecular target: GlcNAc(b1-4)GlcNAc(b1-4)GlcNAc(b1-4)GlcNAc(b1-4)GlcNAc(b1-4)GlcNAc
# In short: as §1
# [10] = molecular target: GlcNAc(b1-4)[GlcNAc(b1-6)]GalNAc
# In short: as §1
# [11] = molecular target: GlcNAc(b1-6)Gal(b1-4)GlcNAc
# In short: as §1
# GlcNAc(b1-6)GalNAc = molecular target: GlcNAc(b1-6)GalNAc
# In short: as §1
# Kdn(a2-3)Gal(b1-3)GlcNAc = molecular target: Kdn(a2-3)Gal(b1-3)GlcNAc
# In short: as §1
# Kdn(a2-3)Gal(b1-4)GlcNAc = molecular target: Kdn(a2-3)Gal(b1-4)GlcNAc
# In short: as §1
# [12] = molecular target: Man(a1-2)Man(a1-2)Man(a1-3)Man
# In short: as §1
# [13] = molecular target: Man(a1-2)Man(a1-2)Man(a1-6)[Man(a1-3)]Man
# In short: as §1
# Man(a1-2)Man(a1-3)Man = molecular target: Man(a1-2)Man(a1-3)Man
# In short: as §1
# [14] = molecular target: Man(a1-2)Man(a1-3)[Man(a1-2)Man(a1-6)]Man
# In short: as §1
# [15] = molecular target: Man(a1-2)Man(a1-3)[Man(a1-2)Man(a1-6)]Man(a1-6)[Man(a1-2)Man(a1-2)Man(a1-3)]Man(b1-4)GlcNAc(b1-4)GlcNAc
# In short: as §1
# [16] = molecular target: Man(a1-2)Man(a1-3)[Man(a1-6)]Man(a1-6)[Man(a1-2)Man(a1-3)]Man(b1-4)GlcNAc(b1-4)GlcNAc
# In short: as §1
# [17] = molecular target: Man(a1-2)Man(a1-6)[Man(a1-3)]Man(a1-6)[Man(a1-2)Man(a1-2)Man(a1-3)]Man(b1-4)GlcNAc(b1-4)GlcNAc
# In short: as §1
# Man(a1-3)[Man(a1-6)]Man = molecular target: Man(a1-3)[Man(a1-6)]Man
# In short: as §1
# [18] = molecular target: Man(a1-3)[Man(a1-6)]Man(a1-6)[Man(a1-2)Man(a1-3)]Man(b1-4)GlcNAc(b1-4)GlcNAc
# In short: as §1
# [19] = molecular target: Man(a1-3)[Man(a1-6)]Man(a1-6)[Man(a1-3)]Man(b1-4)GlcNAc(b1-4)GlcNAc
# In short: as §1
# [20] = molecular target: Man(a1-3)[Man(a1-6)]Man(b1-4)GlcNAc(b1-4)GlcNAc
# In short: as §1
# Man(b1-4)GlcNAc = molecular target: Man(b1-4)GlcNAc
# In short: as §1
# Neu5Ac(a2-3)Gal = molecular target: Neu5Ac(a2-3)Gal
# In short: as §1
# [21] = molecular target: Neu5Ac(a2-3)Gal(b1-3)GalNAc
# In short: as §1
# [22] = molecular target: Neu5Ac(a2-3)Gal(b1-3)GalNAc(b1-3)Gal(a1-4)Gal(b1-4)Glc
# In short: as §1
# [23] = molecular target: Neu5Ac(a2-3)Gal(b1-3)GalNAc(b1-3)Gal(b1-4)GlcNAc
# In short: as §1
# [24] = molecular target: Neu5Ac(a2-3)Gal(b1-3)GalNAc(b1-4)[Neu5Ac(a2-3)]Gal(b1-4)Glc
# In short: as §1
# [25] = molecular target: Neu5Ac(a2-3)Gal(b1-3)GalNAc6S
# In short: as §1
# [26] = molecular target: Neu5Ac(a2-3)Gal(b1-3)GlcNAc
# In short: as §1
# [27] = molecular target: Neu5Ac(a2-3)Gal(b1-3)GlcNAc6S
# In short: as §1
# [28] = molecular target: Neu5Ac(a2-3)Gal(b1-3)[Fuc(a1-4)]GlcNAc
# In short: as §1
# [29] = molecular target: Neu5Ac(a2-3)Gal(b1-3)[Fuc(a1-4)]GlcNAc(b1-3)Gal(b1-4)[Fuc(a1-3)]GlcNAc
# In short: as §1
# [30] = molecular target: Neu5Ac(a2-3)Gal(b1-3)[Neu5Ac(a2-3)Gal(b1-4)]GlcNAc
# In short: as §1
binder,measurement,setting,value
B1,glycan array binding signal (z-score),[1],0.173
same,glycan array binding signal (z-score),[2],-0.353
same,glycan array binding signal (z-score),GlcNAc(b1-3)GalNAc,-0.259
same,glycan array binding signal (z-score),[3],-0.12
same,glycan array binding signal (z-score),[4],-0.416
same,glycan array binding signal (z-score),[5],-0.284
same,glycan array binding signal (z-score),[6],0.09
same,glycan array binding signal (z-score),[7],-0.264
same,glycan array binding signal (z-score),[8],-0.044
same,glycan array binding signal (z-score),[9],-0.276
same,glycan array binding signal (z-score),[10],-0.459
same,glycan array binding signal (z-score),[11],-0.332
same,glycan array binding signal (z-score),GlcNAc(b1-6)GalNAc,-0.438
same,glycan array binding signal (z-score),Kdn(a2-3)Gal(b1-3)GlcNAc,-0.418
same,glycan array binding signal (z-score),Kdn(a2-3)Gal(b1-4)GlcNAc,-0.335
same,glycan array binding signal (z-score),[12],-0.265
same,glycan array binding signal (z-score),[13],-0.289
same,glycan array binding signal (z-score),Man(a1-2)Man(a1-3)Man,0.019
same,glycan array binding signal (z-score),[14],-0.339
same,glycan array binding signal (z-score),[15],-0.343
same,glycan array binding signal (z-score),[16],-0.274
same,glycan array binding signal (z-score),[17],-0.358
same,glycan array binding signal (z-score),Man(a1-3)[Man(a1-6)]Man,0.335
same,glycan array binding signal (z-score),[18],-0.336
same,glycan array binding signal (z-score),[19],-0.439
same,glycan array binding signal (z-score),[20],-0.361
same,glycan array binding signal (z-score),Man(b1-4)GlcNAc,0.098
same,glycan array binding signal (z-score),Neu5Ac(a2-3)Gal,-0.037
same,glycan array binding signal (z-score),[21],-0.282
same,glycan array binding signal (z-score),[22],-0.256
same,glycan array binding signal (z-score),[23],-0.37
same,glycan array binding signal (z-score),[24],-0.243
same,glycan array binding signal (z-score),[25],0.602
same,glycan array binding signal (z-score),[26],-0.037
same,glycan array binding signal (z-score),[27],0.125
same,glycan array binding signal (z-score),[28],-0.391
same,glycan array binding signal (z-score),[29],0.05
same,glycan array binding signal (z-score),[30],-0.303
